# Test results published in the supplement of paper PMC11876631.
# Numbering of substitutions follows the chain as printed. Names may count otherwise. ± gives the standard deviation of the averaged measurements. Laboratory Escherichia coli strains with one amino-acid change in an essential protein, pooled on minimal glucose agar with carbenicillin or gentamicin at twice the control MIC (plus kanamycin and chloramphenicol for the plasmids), 48 h. Fold change of barcode share against drug-free plates; higher = less susceptible. Active = above 20 in both replicates (the paper's putatively resistant). '<' = one read or none on drug, '>' = one read or none on a drug-free plate. Shares are relative, so most strains fall below 1 when a few take over. Listed are strains with at least 15 reads on both drug-free plates, and hits; most hits rest on fewer reference reads. Replicate rank correlation about 0.5. Edits are read from barcodes.
# B1: leuC M111D (protein)
# chain: MAKTLYEKLFDAHVVYEAENETPLLYIDRHLVHEVTSPQAFDGLRAHGRPVRQPGKTFATMDHNVSTQTKDINACGEMARIQMQELIKNCKEFGVELYDLNHPYQGIVHVDGPEQGVTLPGMTIVCGDSHTATHGAFGALAFGIGTSEVEHVLATQTLKQGRAKTMKIEVQGKAAPGITAKDIVLAIIGKTGSAGGTGHVVEFCGEAIRDLSMEGRMTLCNMAIEMGAKAGLVAPDETTFNYVKGRLHAPKGKDFDDAVAYWKTLQTDEGATFDTVVTLQAEEISPQVTWGTNPGQVISVNDNIPDPASFADPVERASAEKALAYMGLKPGIPLTEVAIDKVFIGSCTNSRIEDLRAAAEIAKGRKVAPGVQALVVPGSGPVKAQAEAEGLDKIFIEAGFEWRLPGCSMCLAMNNDRLNPGERCASTSNRNFEGRQGRGGRTHLVSPAMAAAAAVTGHFADIRNIK
# B2: leuC V125A (protein)
# chain: B1 chain with D111M, V125A
# B3: leuC V125Q (protein)
# chain: B1 chain with D111M, V125Q
# B4: leuC V201A (protein)
# chain: B1 chain with D111M, V201A
# B5: leuC V201Q (protein)
# chain: B1 chain with D111M, V201Q
# B6: leuC V201D (protein)
# chain: B1 chain with D111M, V201D
# B7: leuC V201P (protein)
# chain: B1 chain with D111M, V201P
# B8: aroB V165A (protein)
# chain: MERIVVTLGERSYPITIASGLFNEPASFLPLKSGEQVMLVTNETLAPLYLDKVRGVLEQAGVNVDSVILPDGEQYKSLAVLDTVFTALLQKPHGRDTTLVALGGGVVGDLTGFAAASYQRGVRFIQVPTTLLSQVDSSVGGKTAVNHPLGKNMIGAFYQPASVVADLDCLKTLPPRELASGLAEVIKYGIILDGAFFNWLEENLDALLRLDGPAMAYCIRRCCELKAEVVAADERETGLRALLNLGHTFGHAIEAEMGYGNWLHGEAVAAGMVMAARTSERLGQFSSAETQRIITLLKRAGLPVNGPREMSAQAYLPHMLRDKKVLAGEMRLILPLAIGKSEVRSGVSHELVLNAIADCQSA
# B9: leuD V12A (protein)
# chain: MAEKFIKHTGLAVPLDAANVDTDAIIPKQFLQKVTRTGFGAHLFNDWRFLDEKGQQPNPDFVLNFPQYQGASILLARENFGCGSSREHAPWALTDYGFKVVIAPSFADIFYGNSFNNQLLPVKLSDAEVDELFALVKANPGIHFDVDLEAQEVKAGEKTYRFTIDAFRRHCMMNGLDSIGLTLQHDDAIAAYEAKQPAFMN
# B10: leuD V12D (protein)
# chain: B9 chain with A12D
# B11: leuD V13A (protein)
# chain: B9 chain with A12V, V13A
# B12: leuD V13Q (protein)
# chain: B9 chain with A12V, V13Q
# B13: leuD V13D (protein)
# chain: B9 chain with A12V, V13D
# Target: Escherichia coli (laboratory strain)
# Assay: barcode share on antibiotic plates over drug-free plates; higher = less susceptible
# Settings: antibiotic: carbenicillin; 2× MIC (3.1 µg/mL)
# Procedure: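 A pool of E. coli strains, each edited to carry one amino-acid change in an essential protein, was grown for 48 h on minimal glucose agar with or without antibiotic; strain barcodes were sequenced; mean of two replicates.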
row,Protein,fold change of barcode share
1,B1,> 29.4 [active]
2,B2,0.8024 ± 0.0037
3,B3,5.54 ± 0.55
4,B4,0.503 ± 0.18
5,B5,0.694 ± 0.05
6,B6,3.16 ± 0.058
7,B7,1.32 ± 0.65
8,B8,0.373 ± 0.086
9,B9,0.353 ± 0.064
10,B10,0.567 ± 0.45
11,B11,0.548 ± 0.12
12,B12,0.274 ± 0.052
13,B13,0.65 ± 0.12

# Same assay, conditions: antibiotic: gentamicin; 2× MIC (MIC 0.45 µg/mL)
row,Protein,fold change of barcode share
1,B2,0.00518 ± 0.004
2,B4,0.153 ± 0.16
3,B5,0.0136 ± 0.011
4,B7,0.0158 ± 0.0039
5,B8,< 0.00446
6,B9,< 0.00659
7,B10,0.0168 ± 0.0092
8,B11,< 0.0071
9,B12,< 0.00862
10,B13,< 0.0107
